# The source gives no read counts; variants with many changes may rest on few reads.
# B1: LINE1-mini (parent)
# chain: GGCAGAGCUCAACACAGCGUGGCAAAGUGGCUGUGGCUAGACUGCC
# Variants of: B1
# Experiment: self-cleavage, relative activity (ratio to wild type); higher = more cleavage; in vitro, sequencing; the parent is a self-cleaving ribozyme
row,Variant,self-cleavage
1,GGCAGCGCUCAACAGAGCUUGACAAAGUGGCUGUGGUUAGACUGCC [A6C C15G G19U G22A C37U],0.04
2,GGCAGCGCUUAACACAGCGAGGCAAAGUUCCUGAGGCUAGACUGCC [A6C C10U U20A G29U G30C U34A],0.03
3,GGCAGCGCUCAAAACAGCGUGGCAAAUUGGCUGUGGCUAUACUGCC [A6C C13A G27U G40U],0.06
4,GGCAGCGCUGAACACAGCGUGGCAAAGUUACUGUGGGUAGACUGCC [A6C C10G G29U G30A C37G],0.02
5,GGCAGCGCUCAACACAGCGUGGAAGAGUGGACGUGCCGAGACUGCU [A6C C23A A25G C31A U32C G36C U38G C46U],0.01
6,GGCAGCGCUAAACACAGCCUGACGAAGAGGCUGUGGCUAGAUUGCC [A6C C10A G19C G22A A24G U28A C42U],0
7,GGCAGCGCUCAACAGAGCAUGGCAAAGUGGCUGUGGCUAGACUGCC [A6C C15G G19A],0.06
8,GGCAGCGCUCAACAUGGCGUCGCAAAGUGGCUGUGGCUAGUCUGCC [A6C C15U A16G G21C A41U],0.02
9,GGCAGCGCUCAAUACAACGUGGCAACGUGGCUGUGGCUAUACUGCC [A6C C13U G17A A26C G40U],0.61
10,GGCAGCAAUCAACACAGCGUGGCACUGUGGCUGUCGCUAGCGUGCC [A6C G7A C8A A25C A26U G35C A41C C42G],0.07
11,GGCAGCGCUGAACACAGCGUGGAAAAGUGGUUGUGGCUGGACUGCA [A6C C10G C23A C31U A39G C46A],0.01
12,GGCAGCGCUUAACACAGCGUGGCAAAGUUGCUGAGGCUAGGCUGCC [A6C C10U G29U U34A A41G],0.05
13,GGCAGCGCUGAACACAGCGUGGCAAAGUGGCUGUGGCUAGACUGAC [A6C C10G C45A],0.03
14,GGCAGCCCUCAAGACAGCGUGGCAAAGUGGCUGUGGCUAGACUCCC [A6C G7C C13G G44C],0.13
15,GGCAGCAGUCAACACAGCGAGGCAAAGUGGCUGUGGCUCGACUGCC [A6C G7A C8G U20A A39C],0.03
16,GGCAGCGCUUAACACAGCGCGGCAAAGUGGCUGUGGCUAGACUGCC [A6C C10U U20C],0.08
17,GGCAGCUCUCGACACAGCGUGGCAAAGUGGCUGUGGCUAGACUGCC [A6C G7U A11G],0
18,GGCAGCCCUCAACACAGCGUGCCAAAGUGGCUGUGCAUAGACUGCC [A6C G7C G22C G36C C37A],0.18
19,GGCAGCGCUGAACACAGCGUGGCAAAGUGGCUGUAGCUAGACUGCC [A6C C10G G35A],0.02

row,Variant,self-cleavage
1,GGCAGCGCUGAACACACCGUGGCAAAGUGGAUGUGGCUAGACUGCC [A6C C10G G17C C31A],2.75
2,GGCAGCGCUCAAUACAGCGUGGCAAAGUGGCUGUGACUAGACUGCC [A6C C13U G36A],0.09
3,GGCAGCGCUCAAAACAGCGUGUCAAAGUGGGAGUGCCUAGACUGAC [A6C C13A G22U C31G U32A G36C C45A],0.01
4,GGCAGCUCUCAACAAAGCGUGGCAAAGUGGCUUUAGCUAGACUGCC [A6C G7U C15A G33U G35A],0.07
5,GGCAGCCCUCAACACAGCGUGGCAAAGUGGCUGUUGCUAGACUGCA [A6C G7C G35U C46A],0.03
6,GGCAGCGCUCAACAAAGCGUGGCGAAGUGGCUGUGGUUAGACUGUC [A6C C15A A24G C37U C45U],0.26
7,GGCAGCGCUCAACACAGCGUGGAAAAGUGGCUUUGGCUAGACUGCC [A6C C23A G33U],0.06
8,GGCAGCCUUCAACACAGCGUGGCAAAGGGGCUGUGGCUAGACUGCC [A6C G7C C8U U28G],0.01
9,GGCAGCGCUCAACACAGCGUGGCAAAGUGGCUGUGGCUAGACUGGU [A6C C45G C46U],0.41
10,GGCAGCGCUCAACAUAGCGUGGAAAAGUGACUGUGGCUAGACUGCC [A6C C15U C23A G30A],0.5
11,GGCAGCGCUCAACAUAGCGUGGCAUAGUGGCUGUGGCUAGACUGCC [A6C C15U A25U],1.73
12,GGCAGCGCUCAACAUAGCGUGGCACAGUGGCUGUGGCUAGACUGCC [A6C C15U A25C],0.16
13,GGCAGCGCUUAACACAGCGUGUCAAAGUGGCUGUGGCUAGACUGCC [A6C C10U G22U],0.03
14,GGCAGCGCUCAAAACAGCGUGGCCAAGUGGCUCUGGCUAGACUGCC [A6C C13A A24C G33C],0.05
15,GGCAGCGCUCAACAUAGCGUGUCAAAGUGGCUGUGGCUAGACUACC [A6C C15U G22U G44A],0.31
16,GGCAGCGCUCAACACAGGGUGGCAAAGUGGCUGUGCCUAGACUGCC [A6C C18G G36C],0.06
17,GGCAGCACUCAACACAGGGUGGCAAAGCAGCUACGGCUAAACUGCC [A6C G7A C18G U28C G29A G33A U34C G40A],0.01
18,GGCAGCGCUCAACACAGCGUGGCAAAGUGGUUCUGGCGAGACUCCC [A6C C31U G33C U38G G44C],0.03
19,GGCAGCGCUCAACAGAGCGUGGCAAAGUGUCUGUGGGUAGACUGCU [A6C C15G G30U C37G C46U],0.01

row,Variant,self-cleavage
1,GGCAGCGCUUAACUCAGCGUGGCAAAGUGGCUGUGGCUAGACUGCC [A6C C10U A14U],0.17
2,GGCAGCUCUCAACACAGCGUGGCAAAGUGGCUGUGGCUAGACUGCU [A6C G7U C46U],0.06
3,GGCAGCGCUCAACACAGCGUGGCAAAGUGGACGUAGAUAGACUGCC [A6C C31A U32C G35A C37A],0.06
4,GGCAGCCCUCAGCACAGCGUGUCAAAGUGGCGGUGGCUACACUGCC [A6C G7C A12G G22U U32G G40C],0.01
5,GGCAGCGCUCAAUACAGCGUGGCAAAGUGGCUGUGGCUAGAGUGCC [A6C C13U C42G],0.03
6,GGCAGCACUCAACACAGCGUGGCAAGGGGGCUGUGGCUAGACUGCC [A6C G7A A26G U28G],0.09
7,GGCAGCGCUGACCAGCGCAUGGCAAAGUGGCUGUGGCUAGUCUGCC [A6C C10G A12C C15G A16C G19A A41U],0.01
8,GGCAGCGCUUAACACAAGGAGGCAAAGUGGCUGUGGCUAGACUGCC [A6C C10U G17A C18G U20A],0.08
9,GGCAGCGCUCAAUAGAGCGUGUUAAAGUCGCUGUGGCUAGAAUGCC [A6C C13U C15G G22U C23U G29C C42A],0.01
10,GGCAGCGCUUAACACAGCGUGGCAAAGUGUCUGUGGCUAGAGUGCC [A6C C10U G30U C42G],0.01
11,GGCAGCACUCAACACAGCGUGGCAAAGUGGCUGUGGCUACACUGCC [A6C G7A G40C],0.14
12,GGCAGCACUCAACACAGCGUGGCACAGUGGCUGUGGCUAGACUGCC [A6C G7A A25C],0.18
13,GGCAGCGCUCAACAUAGCGUGGCAAAGUGGCUGUGGCUAGACUUCC [A6C C15U G44U],0.09
14,GGCAGCGCUCAACACAGUGUGGGAAAGUGGCUGUGGCUAGACUGCC [A6C C18U C23G],0.9
15,GGCAGCGCUCAACAAAGCUUCGCAAAGUGGCUGUGGCUAGACUGCC [A6C C15A G19U G21C],0.09
16,GGCAGCGCUCAACAUAGCGUGGCAAAGUGGCUGUAGCUAGACUGCC [A6C C15U G35A],0.03
17,GGCAGCGCUCAACACAGCGUGGAAAAGUGGCUGUGGCUAGACAGCC [A6C C23A U43A],0.13
18,GGCAGCGCUCAAAACAGCGUGGCAAAGUGGCUGUGGCUAGACUGUC [A6C C13A C45U],0.04

# Reference: the RNAGym collection of RNA variant scans (doi:10.7554/elife.90254)
